{"source": "PubChem BioAssay AID1346428", "about": "(National Center for Advancing Translational Sciences (NCATS), 2018)", "note": "Values joined by “and” are separate entries in the source; they are usually repeats but may differ in a detail not shown here. Identical values can stand only once. Hit rate of the full screen: of about 48,000 compounds, about 1,200 (2.5%) were called active. About 2% were inconclusive and are not listed.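 The calls were made as follows: active = activation of at least 60% and not above a set upper limit (about 1 call in 100 departs from these limits); inconclusive = activation of 40% to 60%, or above that upper limit; inactive = activation under 40%.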 The list shows a part of the results. Where a structure was tested more than once in an assay, its records may differ in their call.", "data": [{"target": "Probable G-protein coupled receptor 32 (Homo sapiens) (UniProt O75388)", "sequence (O75388 whole entry, looked up, the tested form may be a part)": "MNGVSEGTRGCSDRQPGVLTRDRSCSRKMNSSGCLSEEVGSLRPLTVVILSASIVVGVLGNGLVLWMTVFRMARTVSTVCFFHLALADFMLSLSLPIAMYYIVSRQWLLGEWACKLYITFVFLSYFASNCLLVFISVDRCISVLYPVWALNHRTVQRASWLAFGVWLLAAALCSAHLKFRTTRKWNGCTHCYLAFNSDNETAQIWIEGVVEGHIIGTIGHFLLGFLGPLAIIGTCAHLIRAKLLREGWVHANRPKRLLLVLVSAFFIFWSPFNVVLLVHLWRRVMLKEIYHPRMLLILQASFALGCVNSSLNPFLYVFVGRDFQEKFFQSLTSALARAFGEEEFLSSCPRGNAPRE", "assay": "qHTS for Agonists of Human Resolvin D1 Receptor DRV1; also: 0% is about no effect", "settings": "CHO-K1 GPR32 beta-arrestin PathHunter luminescence, 90 min; at 76.9 µM; stronger effect = higher value; zero percent set by DMSO-only wells", "summary_of_the_method": "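Agonism was scored as beta-arrestin recruitment to ProLink-fused GPR32 in stably transfected CHO-K1 cells, giving a chemiluminescent beta-Gal signal; compounds were incubated 90 min at 37 °C.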", "values": [{"smiles": "CC(=O)c1ccc(NC(=O)c2sc(-n3nc(C)c(CCC(C)C)c3C)nc2C)cc1", "activation": "inactive: -12.5%"}, {"smiles": "Cc1ccc(S(=O)Cc2ccc(C(=O)NCc3ccc(OC(C)C)cc3)o2)cc1", "note": "(centres undefined)", "activation": "inactive: -17.8%"}, {"smiles": "Cc1nc2c3cccnc3nn2c(C)c1CCC(=O)NCc1ccccc1Cl", "activation": "inactive: -17.8%"}, {"smiles": "Cc1ccc2c(Sc3ccccc3)c(C(=O)NCc3ccccc3F)[nH]c2c1", "activation": "inactive: -4.49%"}, {"smiles": "CCOc1ccccc1NC(=O)CSc1nc2ccccc2nc1Cc1ccc(C)cc1", "activation": "active: 70.5%"}, {"smiles": "Cc1oc(-c2ccccc2Cl)nc1CS(=O)CC(=O)N1CCN(c2cccc(C(F)(F)F)c2)CC1", "note": "(centres undefined)", "activation": "inactive: -8.54%"}, {"smiles": "Cn1nnnc1SCCCNCc1cc(Br)ccc1OCc1ccccc1", "activation": "inactive: 19.4%"}, {"smiles": "COc1cc2c(cc1OC)-c1cc(=Nc3c(C)cc(C)cc3C)n(C)c(=O)n1CC2", "activation": "inactive: -18.9%"}, {"smiles": "Cc1nc2sccn2c(=O)c1S(=O)(=O)Nc1ccc(N2CCN(C)CC2)cc1", "activation": "inactive: -3.04%"}, {"smiles": "COc1ccc(-c2nn3c(=O)cc(CN4CCN(C(=O)Nc5cc(C)ccc5C)CC4)nc3s2)cc1", "activation": "inactive: -4.73%"}, {"smiles": "COc1cc(OC)c(NC(=O)NCCn2nnc3cc(S(=O)(=O)N(C)C)ccc32)cc1Cl", "activation": "inactive: -7.22%"}, {"smiles": "COc1ccc(-c2c(C#N)c(SCC(=O)Nc3ccc(C)c(C)c3)nc(C)c2C(=O)Nc2ccc(Cl)cc2)cc1", "activation": "inactive: -6.69%"}, {"smiles": "Cc1cc(-c2ccc(S(=O)(=O)Nc3cccc(C)c3C)s2)on1", "activation": "inactive: -6.51%"}, {"smiles": "CCOc1ccc(CCNC(=O)C(CC)n2nc(C)c3c(C)n(-c4ccccc4)nc3c2=O)cc1", "note": "(centres undefined)", "activation": "inactive: -12.3%"}, {"smiles": "CCCCNc1ccc(C(=O)OCCN(CC)CC)cc1", "activation": "inactive: 2.95%"}, {"smiles": "CCCCSCCCNC(=O)C1CCN(Cc2nc(-c3ccc(CC)cc3)oc2C)CC1", "activation": "inactive: 25.3%"}, {"smiles": "Cc1cccc(N2CCN(C(=O)c3sc4nc5n(c(=O)c4c3C)CCC5)CC2C)c1", "note": "(centres undefined)", "activation": "inactive: -1.78%"}, {"smiles": "O=C(CSc1nnc(-c2ccccc2Br)n1-c1ccccc1)c1ccc(F)cc1", "activation": "active: 60.2%"}, {"smiles": "Cc1nc2ccn(Cc3cccnc3)c(=O)c2cc1C(=O)NCc1ccccc1", "activation": "inactive: -14.8%"}, {"smiles": "CC(C)(C)C1CCc2nc(NC(=O)c3cccc(Cl)c3)sc2C1", "note": "(centres undefined)", "activation": "inactive: -9.92%"}, {"smiles": "COC(=O)c1ccc(OCC2c3cc(OC)c(OC)cc3CCN2C(=O)c2ccc(OC)cc2)cc1", "note": "(centres undefined)", "activation": "inactive: -0.613%"}, {"smiles": "O=c1[nH]c(SCc2ccccc2)nc2c1CCCC2", "activation": "inactive: -2.32%"}, {"smiles": "Cc1ccc(C)c(NC(=O)Cn2cnc3c(oc4ccccc43)c2=O)c1", "activation": "inactive: -2.21%"}, {"smiles": "Cc1cccc(N(CC(=O)NCc2ccccc2)S(C)(=O)=O)c1C", "activation": "inactive: 2.35%"}, {"smiles": "CCc1ccc(C2=CC(c3cccc(C)c3)n3c(nc4ccccc43)N2)cc1", "note": "(centres undefined)", "activation": "inactive: -5%"}, {"smiles": "CCc1ccc(-c2nc(CN3CCC(C(=O)NCCc4ccc(C)cc4)CC3)c(C)o2)cc1", "activation": "inactive: -1.79%"}, {"smiles": "COc1ccc(CNC(=O)CSCc2nc(-c3ccccc3F)oc2C)cc1", "activation": "inactive: -17.2%"}, {"smiles": "Cc1nnc(N2CCC(C(=O)NCCc3ccccc3)CC2)c2nn(-c3ccccc3)c(C)c12", "activation": "inactive: -7.99%"}, {"smiles": "COc1ccccc1-c1cc(C(=O)N2CCN(c3ccccc3)CC2)no1", "activation": "inactive: 2.14%"}, {"smiles": "Cc1cc(C)c2c(=O)cc(C(=O)Nc3ccc(C)c(Cl)c3)oc2c1", "activation": "inactive: -2.92%"}, {"smiles": "COc1ccc(NC(=O)C(c2ccccc2)N2Cc3ccccc3C2=O)cc1", "note": "(centres undefined)", "activation": "inactive: -21.8%"}, {"smiles": "CCOC(=O)Cn1c(C2CC(=O)N(c3ccc(C)cc3)C2)nc2ccccc21", "note": "(centres undefined)", "activation": "inactive: -19.6%"}, {"smiles": "Cc1ccccc1OCCn1cc(C(=O)C2CCCCC2)c2ccccc21", "activation": "inactive: -0.999%"}, {"smiles": "Fc1ccc(C(OCCCc2cnc[nH]2)c2ccc(F)cc2)cc1", "activation": "inactive: 10.1%"}, {"smiles": "CCC(=O)N1c2ccccc2CC1C(=O)NCCc1ccc(SC)cc1", "note": "(centres undefined)", "activation": "inactive: -1.98%"}, {"smiles": "O=[N+]([O-])c1ccc(C(c2sc3nc(-c4ccco4)nn3c2O)N2CCN(Cc3ccccc3)CC2)cc1", "note": "(centres undefined)", "activation": "inactive: -12%"}, {"smiles": "Cc1ccc(C)c(N2CCN(C(=O)Cn3cnc4sc(C)c(S(=O)(=O)N5CCN(c6ncccn6)CC5)c4c3=O)CC2)c1", "activation": "inactive: 3.17%"}, {"smiles": "CCNC(=O)N1CCN(CCCC(c2ccc(F)cc2)c2ccc(F)cc2)CC1", "activation": "active: 112% and inactive: -2.72%"}, {"smiles": "O=C(Nc1ccc2c(c1)OCO2)c1cc(-c2cccc(Cl)c2)on1", "activation": "inactive: -1.56%"}, {"smiles": "CCN(CC)S(=O)(=O)c1nnc(NC(=O)COc2ccc(C)cc2)s1", "activation": "inactive: 13.9%"}, {"smiles": "CC(=O)Nc1ccccc1-c1nc2ccccc2n(C(C)C(=O)Nc2cc(Cl)ccc2C)c1=O", "note": "(centres undefined)", "activation": "inactive: 32%"}, {"smiles": "CC(=O)Nc1ccc(NC(=O)CCc2c(C)nc3c(c(C)nn3-c3ccc(C)cc3)c2C)cc1", "activation": "inactive: -23.1%"}, {"smiles": "CCOc1ccc(NC(=O)c2ccc(CN3C(=O)C(C)=C(c4ccc(C)cc4)S3(=O)=O)cc2)cc1", "activation": "inactive: -21.9%"}, {"smiles": "Cc1ccc(C)c(NC(=O)CSc2nnc(CNC(=O)c3ccccc3)n2-c2ccccc2)c1", "activation": "inactive: 8.13%"}, {"smiles": "COC1=C(OC)C(=O)C(CCCCCCCCCCO)=C(C)C1=O", "activation": "inactive: 46.3%"}, {"smiles": "CC(C)n1c(/C=C/[C@@H](O)C[C@@H](O)CC(=O)O)c(-c2ccc(F)cc2)c2ccccc21", "activation": "inactive: 39.1%"}, {"smiles": "Cn1c(=O)c2sccc2n2c(CCCC(=O)Nc3ccc(Cl)cc3)nnc12", "activation": "inactive: -3.71%"}, {"smiles": "CCC(=O)Nc1ccccc1-c1nc2ccccc2n(Cc2cccc(Br)c2)c1=O", "activation": "inactive: -15.6%"}, {"smiles": "COc1ccc(CN2CCCN(CC(=O)Nc3cc(C)ccc3C)S2(=O)=O)cc1", "activation": "inactive: 2.26%"}, {"smiles": "CCOC(=O)c1sc(N2C(=O)c3oc4cc(C)c(C)cc4c(=O)c3C2c2ccc(C)cc2)nc1C", "note": "(centres undefined)", "activation": "inactive: 8.9%"}, {"smiles": "O=C(Nc1ccccc1Cl)c1ccc(F)c(S(=O)(=O)NCc2ccc(Cl)c(Cl)c2)c1", "activation": "inactive: -10.5%"}, {"smiles": "CCc1ccc2oc(C(=O)NCC(c3ccc(Cl)cc3)N3CCOCC3)c(C)c2c1", "note": "(centres undefined)", "activation": "inactive: -19.1%"}, {"smiles": "CC(=O)N1CCCc2cc(S(=O)(=O)N(CCN(C)C)Cc3ccccc3)ccc21", "activation": "inactive: -6.39%"}, {"smiles": "CCOC(=O)c1c(C)oc2nc(C)nc(Nc3cc(C)cc(C)c3)c12", "activation": "inactive: 4.63%"}, {"smiles": "Cc1ccc(-n2ncc3c(N4CCCCC4)ncnc32)cc1Cl", "activation": "inactive: 13.9%"}, {"smiles": "CCc1cccc(C)c1NC(=O)c1cc(S(=O)(=O)N(C)Cc2ccccc2)ccc1F", "activation": "inactive: -0.585%"}, {"smiles": "COc1ccc(-c2cc(OC(=O)c3ccccc3C)c3c(C)oc(C)c3c(=O)c2)cc1", "activation": "inactive: -13.8%"}, {"smiles": "O=C1CCC(c2ccc(-n3ccnc3)cc2)=NN1", "activation": "inactive: 3.3%"}, {"smiles": "O=C(CSc1nc2ccccc2n1Cc1ccc(F)cc1)N1CCN(c2ccc(F)cc2)CC1", "activation": "inactive: -14.4%"}, {"smiles": "Cc1csc2nc(COC(=O)c3ccc(F)cc3)cc(=O)n12", "activation": "inactive: -7.66%"}, {"smiles": "COc1ccc(CNC(=O)C2CCCN(C(=O)c3cnn(-c4ccc(F)cc4)c3-n3cccc3)C2)cc1", "note": "(centres undefined)", "activation": "inactive: 47.7%"}, {"smiles": "CC1CCCCN1Cc1c(O)ccc2c(=O)c(-c3ccc(Cl)cc3)coc12", "note": "(centres undefined)", "activation": "inactive: -3.46%"}, {"smiles": "Cc1ccc(CNC(=O)c2cc(=O)c3cc(C)c(C)cc3o2)cc1", "activation": "inactive: 12.2%"}, {"smiles": "CCOC(=O)c1c(-c2ccc(Br)cc2)csc1NC(=O)c1ccc(C(C)(C)C)cc1", "activation": "inactive: 6.82%"}, {"smiles": "CCOc1cccc2sc(NC(=O)c3ccc(S(=O)(=O)N4CCCCC4)cc3)nc12", "activation": "inactive: -29%"}, {"smiles": "Cc1nc2c(-c3ccccc3)c(C)[nH]n2c(=O)c1Cc1ccc(Br)cc1", "activation": "inactive: -8.86%"}, {"smiles": "COc1ccc(NC(=O)c2cc(=O)c3cc(C)cc(C)c3o2)cc1", "activation": "inactive: -10.3%"}, {"smiles": "CCOc1ccc(CC(=O)NCCc2sc(-c3cccc(F)c3)nc2C)cc1", "activation": "active: 68.9%"}, {"smiles": "O=C(NCCS(=O)(=O)N1CCN(c2ccc(F)cc2)CC1)c1ccccc1Br", "activation": "inactive: -17.8%"}, {"smiles": "CC(=O)Nc1cccc(NC(=O)CSc2cn(CC(=O)N3CCCC3)c3ccccc23)c1", "activation": "inactive: -11.9%"}, {"smiles": "COc1ccc(NC(=O)c2cc3c(=O)n(C)c4cc(Cl)ccc4c3s2)cc1Cl", "activation": "inactive: -18%"}, {"smiles": "CC(CNc1nc2ccccc2c2nc(-c3ccccc3)nn12)c1ccccc1", "note": "(centres undefined)", "activation": "inactive: -4.77%"}, {"smiles": "Cc1ccc(CCNC(=O)c2oc(=O)c3ccccc3c2-c2ccc(C)cc2)cc1", "activation": "inactive: -9.83%"}, {"smiles": "CCCS(=O)(=O)c1nc(S(=O)(=O)c2ccc(C)cc2)c(NCC(C)C)s1", "activation": "inactive: -26.2%"}, {"smiles": "CC1CCN(S(=O)(=O)c2ccc3c(ccc(=O)n3CC(=O)NCc3ccccc3)c2)CC1", "activation": "inactive: -15%"}, {"smiles": "CC(C)(C)OC(=O)N1CCC(c2c(C(=O)NCc3ccco3)cnn2-c2ccc(F)cc2F)CC1", "activation": "inactive: -9.9%"}, {"smiles": "CCC(=O)Nc1ccc(C)cc1-c1nc2ccccc2n(CC(=O)c2ccc(C)cc2)c1=O", "activation": "inactive: -10.5%"}, {"smiles": "CCc1ccc(-n2c(=O)c3c(C)c(C(=O)N(C)C)sc3n(CC(=O)Nc3cc(Cl)ccc3C)c2=O)cc1", "activation": "inactive: -1.23%"}, {"smiles": "CCOC(=O)c1c(C)c(C(=O)NCc2ccc(Cl)cc2)c(C)n1C", "activation": "inactive: -11.8%"}, {"smiles": "COc1ccccc1NC(=O)C1=C(C)Nc2nc(-c3ccco3)nn2C1c1cccc(C)c1", "note": "(centres undefined)", "activation": "inactive: -32%"}, {"smiles": "Cc1noc2ncnc(N3CCCC(C(=O)Nc4cc(F)ccc4F)C3)c12", "note": "(centres undefined)", "activation": "inactive: 33.6%"}, {"smiles": "CCCCNC(=O)Cn1c(=O)cc(C)c2c(C)nn(-c3cccc(Cl)c3C)c21", "activation": "inactive: 8.05%"}, {"smiles": "CC(=O)c1ccc(NC(=O)COc2ccccc2-c2nc(C(C)C)no2)cc1", "activation": "inactive: -4.24%"}, {"smiles": "CCOC(=O)c1c(C)[nH]c(C)c1S(=O)(=O)NCC(=O)Nc1cc(Cl)ccc1OC", "activation": "inactive: -14.7%"}]}]}
